The record followed here is paper PMC12136788.

The list shows a part of the results.

T1: UNK ZnF1-6 (called full-length) (human, UniProt Q9C0B0 30-357)
T1 sequence: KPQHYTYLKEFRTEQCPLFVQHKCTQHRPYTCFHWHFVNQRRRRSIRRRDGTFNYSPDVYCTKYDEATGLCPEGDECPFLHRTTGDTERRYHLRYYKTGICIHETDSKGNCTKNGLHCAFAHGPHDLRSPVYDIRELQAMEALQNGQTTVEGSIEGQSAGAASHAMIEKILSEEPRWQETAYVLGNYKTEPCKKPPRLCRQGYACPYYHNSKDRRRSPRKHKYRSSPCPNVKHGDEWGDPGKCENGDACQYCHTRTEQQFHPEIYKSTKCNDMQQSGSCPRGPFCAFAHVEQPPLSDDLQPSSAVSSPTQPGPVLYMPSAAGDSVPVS

B1: ENSG00000064726:stop:overlap|stop_codon|ENSG00000064726|stop_codon|NA|stop_codon (ssRNA)
RNA: GGGAGUUCUACAGUCCGACGAUCUACCGGCUUUAGUUGUGAUGGGACAGCUAACACAUUCAGGGUCAUGUUCAAGGAACCCAUAGAGAUCCUGCCCAAUGUGUGCUACACAGCAUGUGCAACACUCAAAGGUCCAGAUUCCCACAACAGAGGAUUGAGCAUCA
B2: chr1:62648186:62648303:-|CDS|ENSG00000116641|unk|total|mutant (ssRNA)
RNA: GGGAGUUCUACAGUCCGACGAUCGAUGACCUUAAAAGACGUUCAAUGUCAACCGAUGAUACCCCAAGGGGCCGCUGGGCCUGCCGUAUCUUUGACUUGAAAAAUUCACUUCCUGAUGCUUUGCUUCCCAAUUUACUUGAUCGACAACAGAGGAUUGAGCAUCA
B3: chr19:40393765:40398556:-|three_prime_utr|ENSG00000105227|control|control|control (ssRNA)
RNA: GGGAGUUCUACAGUCCGACGAUCCCAGCCCAGGGCCCUCACCCACCUCGGAGAGGCGUCCCCACCAUCGGAUCCAGGCUUGCUAGGGGUCCUGAACCAGGCUACUUCGAACCAGGAAAGCCAGAUUCCAGCCUGAGUGCUGGCCAACAGAGGAUUGAGCAUCA
B4: chr7:77639488:77639589:+|3pUTR|ENSG00000127947|msi1|total|mutant (ssRNA)
RNA: GGGAGUUCUACAGUCCGACGAUCAGUAUUAUUGCCUUAAUGUCUCUUAACCCUGUUACACGCUGCUUGCCGACAUGUUAAUACCGUAAUACCUUUAUGAUAUAUUGAGUUUAAGGACUACUCUUUUUCUGUUUUAUCAUGUAUCAACAGAGGAUUGAGCAUCA
B5: chr2:159230815:159230918:+|CDS|ENSG00000115183|unk|total|mutant (ssRNA)
RNA: GGGAGUUCUACAGUCCGACGAUCAACCUGUUCUGUUUCUACCCUGAGUGCAAGUGUCCACAAUGGGGCACAAGUGAAGGAGCCCGAAGAAAGCAAGUGCCAAAUUCCAGUCCACUCUCAAGAGAACAGGAUAACUAAGACUGUCAACAGAGGAUUGAGCAUCA
B6: chr17:59607285:59607386:+|3pUTR|ENSG00000108406|unk|FALSE|unique (ssRNA)
RNA: GGGAGUUCUACAGUCCGACGAUCUAAAUCAAAGCUCAUCAGUUCCCAUAAAUGCAGUUGUCAAAGAAAAGAUUUGGUUGCCAUAGUCAUAAGCAAUGAUACAUGAAACCAAUGAAAGACAGUACAUGUAAUAAUAUUUUCCUCCAACAGAGGAUUGAGCAUCA
B7: chr12:85803847:85803948:-|3pUTR|ENSG00000198774|unk|total|mutant (ssRNA)
RNA: GGGAGUUCUACAGUCCGACGAUCCCAAACCCAUGUUCAUUCACUGAGUGAGGUACCGUGUGGGUUACAGAGAAAAUCAGUCACCGUGUUAUUUGUUUAUGUCCUAUCUACAAAAGUUGCAAUGAUGGAAUUUGGAACCCUUCUCAACAGAGGAUUGAGCAUCA
B8: chr13:20086215:20086316:+|3pUTR|ENSG00000121741|unk|total|mutant (ssRNA)
RNA: GGGAGUUCUACAGUCCGACGAUCUGGUUUCCGGAUACUUAACAAAUACAUUCAAAUUCUUUUUUUAUUAUUAUUUAUUUGAUCCGGUAUGUUUGUAACUUUUUACAUUACAGAAUAUGAAUGAGAAUGUGCCAUGUAUAAUUUCAACAGAGGAUUGAGCAUCA
B9: ENSG00000144224:stop:overlap|stop_codon|ENSG00000144224|stop_codon|NA|stop_codon (ssRNA)
RNA: GGGAGUUCUACAGUCCGACGAUCCUCAAGAUGAUGGUGAAGAUGAAAACAACACUUGGAAUGGAAAUUCCACUCAACAGAUGUAGUGUGACAAGUAUAAUAUGUGCAAUAAUCAUUGUUUCUCUUAUGAUUUAAUUCAACUAACAACAGAGGAUUGAGCAUCA
B10: chrX:101413019:101413185:+|CDS|ENSG00000126945|unk|total|mutant (ssRNA)
RNA: GGGAGUUCUACAGUCCGACGAUCGGAGCUCUUCUUAAAUUCUACUGCAGGAACAAGUGGGGGUGCUUACGAUCACAGCUAUGCCGAACUUUUUUUGAAUUCUACAGCAGGGGCAAGUGGUGGCGCUUAUGGCCGCCAAAUGAUCAACAGAGGAUUGAGCAUCA
B11: chr7:27141837:27142085:-|CDS|ENSG00000106004|control|control|control (ssRNA)
RNA: GGGAGUUCUACAGUCCGACGAUCGGAGCUGGAGAAGGAGUUCCACUUCAACCGUUACCUGACCCGCAGAAGGAGGAUUGAAAUAGCACAUGCUCUUUGCCUCUCCGAGAGACAAAUUAAAAUCUGGUUCCAAAACCGGAGAAUCAACAGAGGAUUGAGCAUCA
B12: chr2:159433012:159433119:-|CDS|ENSG00000123636|unk|total|mutant (ssRNA)
RNA: GGGAGUUCUACAGUCCGACGAUCGCACUUACUACCAAAACUAAAAUGCAGAGCAAGAUUAAUGAAAACAUUGCUGCUGCAAGCCGCACCCCUUUUUCCUCACCUGUAAAUCUGAGUACAAGUGGGAGAAGAACCCCUGGCAAUCAACAGAGGAUUGAGCAUCA
B13: chr6:52498635:52498743:-|3pUTR|ENSG00000065308|msi1|FALSE|unique (ssRNA)
RNA: GGGAGUUCUACAGUCCGACGAUCAAAGGGACACGGAUUGUGACAGUUUCACCCCAUUUGUUUCUAACCCCGCUGCCCAGGAUUAGGGUCUGUGGUGUGUUCUGUUUUGUUUUUGGUUUCUCCCUUGUGUCAGUUCUCUUCUGGCAACAGAGGAUUGAGCAUCA
B14: ENSG00000120539:stop:overlap|stop_codon|ENSG00000120539|stop_codon|NA|stop_codon (ssRNA)
RNA: GGGAGUUCUACAGUCCGACGAUCCCUCCUAUUUUGAAGCCAGGAAUACUGCUCAGCACCUGACUGUAUCUGGAUUUAGUCUGUAGCACAAAAAUUUUCCUUUUAGUCUAGCCUUGUGUUAUAGAAUGAACUUGCAUAAUUAUACAACAGAGGAUUGAGCAUCA
B15: chr4:41955281:41955382:+|3pUTR|ENSG00000109133|msi1|total|mutant (ssRNA)
RNA: GGGAGUUCUACAGUCCGACGAUCGCCGGGGGAGGAGUUGUGGGGGAAUAAUGUGCAUUUCAGUCUCAACGCACCGAUAAAUUCCGGGGAAUUGGAUGUAUUAUUCAACUUUGAUUUGGGUUGUAAAAUGUGUUAAAUCCUGUUCAACAGAGGAUUGAGCAUCA
B16: chr1:156243319:156244403:-|three_prime_utr|ENSG00000160781|control|control|control (ssRNA)
RNA: GGGAGUUCUACAGUCCGACGAUCACCAACAGGGGCUGAGGAGAGAGGGCACAGGAGAGAGGGCAGAGAAGAGGAGGGGUGUCUAGGGGGACUGGCAGAGUGUGAGAGGGACCGUGAGGGGGCUCUUGAUGGGAGUGGAAGAAGCAACAGAGGAUUGAGCAUCA
B17: chr8:18529670:18529771:-|3pUTR|ENSG00000156011|msi1|total|mutant (ssRNA)
RNA: GGGAGUUCUACAGUCCGACGAUCUAAAGCCAUGGAGUUUAUAAAGCCAAGUAACCAUUUGAUAUGGAUAAUAAUAUCUACUCCCGAGAGAGUAUAUAUAUGCACAUUGAUUUUUAAUGCUGUUAAGAUACUUUUGUAAAACUGCAACAGAGGAUUGAGCAUCA
B18: ENSG00000198589:be:win_2601|CDS|ENSG00000198589|bound_else_gene|NA|bound_elsewhere_windowed (ssRNA)
RNA: GGGAGUUCUACAGUCCGACGAUCAGAAUGGAUGCUUUCUCUCUGCUAUUUUAAUCCUAAGAAUUCAGAUGAGCAAAAGAUAACAGAAAUGGUAUACGCCAUAUUCAGAAUCCUGCUUUACCAUGCAGUCAAAUAUGAGUGGGGCAACAGAGGAUUGAGCAUCA
B19: chr21:30319405:30320035:-|CDS|ENSG00000197683|control|control|control (ssRNA)
RNA: GGGAGUUCUACAGUCCGACGAUCGAGGUAUGUGUCCAGCGGCUGUCGUCCACUGAGGCCGCUGCUCAAUAGUUACCAGCCCAUAGGAGACUGUGUGCCCAAUGCCUAUCGCCCCCAAUUCUGCUUGUCCAAGAGUUGCCAGCCCAACAGAGGAUUGAGCAUCA
B20: chr10:116062369:116062470:-|3pUTR|ENSG00000151892|msi1|total|mutant (ssRNA)
RNA: GGGAGUUCUACAGUCCGACGAUCCUUUUUUCACUUCAAAAUGUUUUCAAGGGAAAUUCAGCAGACACCCAACUGUAUUUAAUCCGUGAAAAGAUCUAUAAAGACUCUUACUUUGAAUAAACACAUUAAGUAAGUGUGUCAAAACAACAGAGGAUUGAGCAUCA
B21: chr19:5611119:5611630:-|CDS|ENSG00000130254|control|control|control (ssRNA)
RNA: GGGAGUUCUACAGUCCGACGAUCGCCUCUAGCGAGGAGCUCGCAGAAGCACCCACGGAAGCCCCAAGCCCAGAAGCCAGAGAUAGCAAAGAAGACGGGAGGAAGUUUGAUUUUGACGCUUGUAAUGAAGUCCCUCCGGCUCCUCAACAGAGGAUUGAGCAUCA
B22: chr17:15229982:15230086:-|3pUTR|ENSG00000109099|msi1_unk|FALSE|overlapping (ssRNA)
RNA: GGGAGUUCUACAGUCCGACGAUCUCAUAAAGCCUUCAUCACUCCCACAUUUUUCUUACGGUCGGAGCAUCAGAACAAGCGUCUAGACUCCUUGGGACCGUGAGUUCCUAGAGCUUGGCUGGGUCUAGGCUGUUCUGUGCCUCCCAACAGAGGAUUGAGCAUCA

In this experiment the target is T1, UNK ZnF1-6 (called full-length). As to the kind of experiment: nsRBNS (natural sequence RNA bind-n-seq); RBNS binding buffer (assumed for nsRBNS): 25 mM Tris pH 7.5, 150 mM KCl, 3 mM MgCl2, 0.01% Triton X-100, 500 ug/ml BSA, 20 U/ml SUPERase-In, 4 C; UNK is unkempt and MSI1 is Musashi-1; names of the RNAs are library labels; protein concentration not given here; high values mean tight binding.
As to B1, the binding signal came out at 0.591 enrichment R. Under B2 stands 0.524 enrichment R; under B3, 0.554 enrichment R. Under B4 stands 0.412 enrichment R; under B5, 0.586 enrichment R. Under B6 stands 0.395 enrichment R; under B7, 0.308 enrichment R. B8: the binding signal worked out at 1.28 enrichment R. Under B9 stands 0.922 enrichment R; under B10, 1.01 enrichment R; under B11, 0.606 enrichment R.

B12 registered a binding signal of 0.494 enrichment R. Under B13 stands 0.598 enrichment R. Under B14 stands 0.634 enrichment R.

Consider B15, for which the binding signal worked out at 1.02 enrichment R. For the molecule B16, the binding signal stood at 1.38 enrichment R.

Molecule B17 gave a binding signal of 0.644 enrichment R. Under B18 stands 0.378 enrichment R; under B19, 0.656 enrichment R. Under B20 stands 0.321 enrichment R. The figure for B21 is 0.661 enrichment R.

In the case of B22, the binding signal is 0.742 enrichment R.
